# Assay results reported in the supplement of paper PMC8728848.
# This is one part of the list.
# B1: SGC, Q9M345 (protein)
# chain: QNLNFTYNGFHPPLTDISLQGLATVTPNGLLKLTNTSVQKTGHAFCTERIRFKDSQNGNVSSFSTTFVFAIHSQIPTLSGHGIAFVVAPTLGLPFALPSQYIGLFNISNNGNDTNHIFAVEFDTIQSSEFGDPNDNHVGIDLNGLRSANYSTAGYRDDHDKFQNLSLISRKRIQVWIDYDNRSHRIDVTVAPFDSDKPRKPLVSYVRDLSSILLEDMYVGFSSATGSVLSEHFLVGWSFRLNGEAPMLSLSKLPKLPRFEPRRIS
# Legend:
# Assay in all cases: glycan array binding signal (z-score within array); higher = stronger binding
# Settings in all cases: glycan notation: IUPAC condensed, linker removed
# GalNAc(b1-4)GlcNAc = molecular target: GalNAc(b1-4)GlcNAc
# How it was run: (§1)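 The Consortium for Functional Glycomics database supplied 3228 glycan arrays, of which those lacking an available protein sequence were dropped. The binding signal, a within-array Z-score, was averaged across arrays of the same protein sequence and across linkers. Negative scores can be read as non-binding.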
# [1] = molecular target: GalNAc(b1-4)GlcNAc(b1-2)Man
# How it was run: as §1
# [2] = molecular target: GalNAc(b1-4)GlcNAc(b1-2)Man(a1-3)[GalNAc(b1-4)GlcNAc(b1-2)Man(a1-6)]Man(b1-4)GlcNAc(b1-4)GlcNAc
# How it was run: as §1
# [3] = molecular target: GalNAc(b1-4)GlcNAc(b1-3)GalNAc(b1-4)GlcNAc
# How it was run: as §1
# GalNAc(b1-4)GlcNAc6S = molecular target: GalNAc(b1-4)GlcNAc6S
# How it was run: as §1
# GalNAc(b1-6)GalNAc = molecular target: GalNAc(b1-6)GalNAc
# How it was run: as §1
# GalNAc3S(b1-4)GlcNAc = molecular target: GalNAc3S(b1-4)GlcNAc
# How it was run: as §1
# GalNAc3S(b1-4)GlcNAc3S = molecular target: GalNAc3S(b1-4)GlcNAc3S
# How it was run: as §1
# [4] = molecular target: GalNAc3S(b1-4)[Fuc(a1-3)]GlcNAc
# How it was run: as §1
# GalNAc4S6S(b1-4)GlcNAc = molecular target: GalNAc4S6S(b1-4)GlcNAc
# How it was run: as §1
# GalNAc6S(b1-4)GlcNAc = molecular target: GalNAc6S(b1-4)GlcNAc
# How it was run: as §1
# Glc(a1-4)Glc = molecular target: Glc(a1-4)Glc
# How it was run: as §1
# [5] = molecular target: Glc(a1-4)Glc(a1-4)Glc(a1-4)Glc
# How it was run: as §1
# Glc(a1-6)Glc(a1-6)Glc = molecular target: Glc(a1-6)Glc(a1-6)Glc
# How it was run: as §1
# [6] = molecular target: Glc(a1-6)Glc(a1-6)Glc(a1-6)Glc
# How it was run: as §1
# Glc(b1-4)Glc = molecular target: Glc(b1-4)Glc
# How it was run: as §1
# Glc(b1-6)Glc = molecular target: Glc(b1-6)Glc
# How it was run: as §1
# GlcA(b1-3)Gal = molecular target: GlcA(b1-3)Gal
# How it was run: as §1
# GlcA(b1-3)GlcNAc = molecular target: GlcA(b1-3)GlcNAc
# How it was run: as §1
# GlcA(b1-6)Gal = molecular target: GlcA(b1-6)Gal
# How it was run: as §1
# [7] = molecular target: GlcA3S(b1-3)Gal(b1-4)GlcNAc(b1-2)Man
# How it was run: as §1
# [8] = molecular target: GlcA3S(b1-3)Gal(b1-4)GlcNAc(b1-3)Gal(b1-4)Glc
# How it was run: as §1
# [9] = molecular target: GlcNAc(a1-3)Gal(b1-4)GlcNAc
# How it was run: as §1
# [10] = molecular target: GlcNAc(a1-4)Gal(b1-3)GlcNAc
# How it was run: as §1
# [11] = molecular target: GlcNAc(a1-4)Gal(b1-4)GalNAc
# How it was run: as §1
# [12] = molecular target: GlcNAc(a1-4)Gal(b1-4)GlcNAc
# How it was run: as §1
# [13] = molecular target: GlcNAc(a1-4)Gal(b1-4)GlcNAc(b1-3)Gal(b1-4)Glc
# How it was run: as §1
# [14] = molecular target: GlcNAc(a1-4)Gal(b1-4)GlcNAc(b1-3)Gal(b1-4)GlcNAc
# How it was run: as §1
# [15] = molecular target: GlcNAc(a1-4)Gal(b1-4)GlcNAc(b1-3)Gal(b1-4)GlcNAc(b1-3)Gal(b1-4)GlcNAc
# How it was run: as §1
# [16] = molecular target: GlcNAc(a1-4)Gal(b1-4)GlcNAc(b1-3)Gal(b1-4)[Fuc(a1-3)]GlcNAc(b1-3)Gal(b1-4)[Fuc(a1-3)]GlcNAc
# How it was run: as §1
# [17] = molecular target: GlcNAc(a1-6)Gal(b1-4)GlcNAc
# How it was run: as §1
# [18] = molecular target: GlcNAc(b1-2)Gal(b1-3)GalNAc
# How it was run: as §1
# [19] = molecular target: GlcNAc(b1-2)Man(a1-3)[GlcNAc(b1-2)Man(a1-6)]Man(b1-4)GlcNAc(b1-4)GlcNAc
# How it was run: as §1
# [20] = molecular target: GlcNAc(b1-2)Man(a1-3)[GlcNAc(b1-2)Man(a1-6)]Man(b1-4)GlcNAc(b1-4)[Fuc(a1-6)]GlcNAc
# How it was run: as §1
# [21] = molecular target: GlcNAc(b1-2)Man(a1-3)[GlcNAc(b1-4)][GlcNAc(b1-2)Man(a1-6)]Man(b1-4)GlcNAc(b1-4)GlcNAc
# How it was run: as §1
# [22] = molecular target: GlcNAc(b1-2)Man(a1-3)[GlcNAc(b1-4)][GlcNAc(b1-2)Man(a1-6)]Man(b1-4)GlcNAc(b1-4)[Fuc(a1-6)]GlcNAc
# How it was run: as §1
# [23] = molecular target: GlcNAc(b1-2)[GlcNAc(b1-4)]Man(a1-3)[GlcNAc(b1-2)Man(a1-6)]Man(b1-4)GlcNAc(b1-4)GlcNAc
# How it was run: as §1
binder,measurement,setting,value
B1,glycan array binding signal (z-score),GalNAc(b1-4)GlcNAc,-0.318
same,glycan array binding signal (z-score),[1],0.403
same,glycan array binding signal (z-score),[2],0.275
same,glycan array binding signal (z-score),[3],-0.359
same,glycan array binding signal (z-score),GalNAc(b1-4)GlcNAc6S,-0.302
same,glycan array binding signal (z-score),GalNAc(b1-6)GalNAc,-0.268
same,glycan array binding signal (z-score),GalNAc3S(b1-4)GlcNAc,-0.38
same,glycan array binding signal (z-score),GalNAc3S(b1-4)GlcNAc3S,-0.349
same,glycan array binding signal (z-score),[4],-0.39
same,glycan array binding signal (z-score),GalNAc4S6S(b1-4)GlcNAc,-0.389
same,glycan array binding signal (z-score),GalNAc6S(b1-4)GlcNAc,-0.117
same,glycan array binding signal (z-score),Glc(a1-4)Glc,-0.339
same,glycan array binding signal (z-score),[5],-0.345
same,glycan array binding signal (z-score),Glc(a1-6)Glc(a1-6)Glc,-0.308
same,glycan array binding signal (z-score),[6],-0.311
same,glycan array binding signal (z-score),Glc(b1-4)Glc,-0.353
same,glycan array binding signal (z-score),Glc(b1-6)Glc,-0.344
same,glycan array binding signal (z-score),GlcA(b1-3)Gal,-0.207
same,glycan array binding signal (z-score),GlcA(b1-3)GlcNAc,-0.369
same,glycan array binding signal (z-score),GlcA(b1-6)Gal,-0.295
same,glycan array binding signal (z-score),[7],-0.501
same,glycan array binding signal (z-score),[8],-0.383
same,glycan array binding signal (z-score),[9],-0.387
same,glycan array binding signal (z-score),[10],-0.386
same,glycan array binding signal (z-score),[11],-0.324
same,glycan array binding signal (z-score),[12],-0.317
same,glycan array binding signal (z-score),[13],-0.322
same,glycan array binding signal (z-score),[14],-0.416
same,glycan array binding signal (z-score),[15],-0.351
same,glycan array binding signal (z-score),[16],-0.321
same,glycan array binding signal (z-score),[17],-0.344
same,glycan array binding signal (z-score),[18],-0.402
same,glycan array binding signal (z-score),[19],-0.307
same,glycan array binding signal (z-score),[20],-0.322
same,glycan array binding signal (z-score),[21],-0.37
same,glycan array binding signal (z-score),[22],-0.379
same,glycan array binding signal (z-score),[23],-0.367
